Assay results from the supplement of paper PMC4967469.
IC50 is the fitted dose that halves viability relative to control wells, and lower means more sensitive; where the fit passes the top or lowest dose, that dose stands as a limit. AUC, from the same fit, is the share of area under the viability curve across the 256-fold dose range; it is 1 without any effect and falls as sensitivity rises. A top dose marked as inferred comes from the curve model; the source does not state it.

compound: CCCCCCCCCCCC1=C(O)C(=O)C=C(O)C1=O [Embelin]; experiment: Viability of human cancer cell lines after 72 h of drug (GDSC screen); details: top dose 32 µM; top dose inferred
Description: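 Human cancer cell lines in 384-well plates, medium with 10% serum, drug for 72 h over a 256-fold dose range (nine 2-fold or five 4-fold steps up to the top dose). Adherent lines were fixed and stained with the nucleic acid dye Syto60, suspension lines read with resazurin; signal relative to control wells, capped at 0 and 100%. One two-parameter sigmoid per drug and line, fitted in a mixed model over all curves with the slope shared within a line.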

Cell Line	AUC	IC50 [µM]
NCI-H446 (small cell lung carcinoma, semi-adherent)	0.946	> 32
NCI-H460 (large cell lung carcinoma, adherent)	0.671	5.69
NCI-H510A (small cell lung carcinoma, semi-adherent)	0.984	> 32
NCI-H520 (lung squamous cell carcinoma, adherent)	0.814	18.1
NCI-H522 (lung adenocarcinoma, adherent)	0.76	13.3
NCI-H524 (small cell lung carcinoma, suspension)	0.963	> 32
NCI-H526 (small cell lung carcinoma, suspension)	0.894	> 32
NCI-H596 (lung adenocarcinoma, adherent)	0.797	20.5
NCI-H647 (non-small cell lung carcinoma, adherent)	0.84	23.6
NCI-H650 (lung adenocarcinoma, adherent)	0.784	15
NCI-H661 (large cell lung carcinoma, adherent)	0.814	22.2
NCI-H716 (large intestine, suspension)	0.95	> 32
NCI-H720 (lung carcinoid, suspension)	0.991	> 32
NCI-H727 (lung carcinoid, adherent)	0.665	
NCI-H747 (large intestine, adherent)	0.783	16.6
NCI-H748 (small cell lung carcinoma, suspension)	0.911	> 32
NCI-H810 (large cell lung carcinoma, adherent)	0.724	8.38
NCI-H838 (lung adenocarcinoma, adherent)	0.915	> 32
NCI-H841 (small cell lung carcinoma, adherent)	0.754	10.8
NCI-H847 (small cell lung carcinoma, adherent)	0.694	6.21
NCI-H1048 (small cell lung carcinoma, adherent)	0.772	11.2
NCI-H1092 (small cell lung carcinoma, suspension)	0.913	> 32

Cell Line	AUC	IC50 [µM]
NCI-H1155 (large cell lung carcinoma, suspension)	0.949	> 32
NCI-H1299 (large cell lung carcinoma, adherent)	0.734	11
NCI-H1304 (small cell lung carcinoma, suspension)	0.832	22.7
NCI-H1355 (lung adenocarcinoma, adherent)	0.744	14
NCI-H1395 (lung adenocarcinoma, adherent)	0.944	> 32
NCI-H1417 (small cell lung carcinoma, suspension)	0.855	> 32
NCI-H1435 (lung adenocarcinoma, semi-adherent)	0.795	13.1
NCI-H1436 (small cell lung carcinoma, suspension)	0.94	> 32
NCI-H1437 (lung adenocarcinoma, adherent)	0.678	6.43
NCI-H1563 (lung adenocarcinoma, adherent)	0.797	18.5
NCI-H1568 (lung adenocarcinoma, adherent)	0.665	6.51
NCI-H1573 (lung adenocarcinoma, adherent)	0.951	> 32
NCI-H1581 (large cell lung carcinoma, semi-adherent)	0.911	> 32
NCI-H1623 (lung adenocarcinoma, adherent)	0.846	31.6
NCI-H1648 (lung adenocarcinoma, adherent)	0.752	11.2
NCI-H1651 (lung adenocarcinoma, adherent)	0.669	6.16
NCI-H1666 (lung adenocarcinoma, semi-adherent)	0.931	> 32
NCI-H1688 (small cell lung carcinoma, adherent)	0.876	> 32
NCI-H1693 (lung adenocarcinoma, adherent)	0.943	> 32
NCI-H1694 (small cell lung carcinoma, suspension)	0.93	> 32
NCI-H1703 (lung adenocarcinoma, adherent)	0.831	26.6
NCI-H1734 (lung adenocarcinoma, adherent)	0.811	19.2

Cell Line	AUC	IC50 [µM]
NCI-H1755 (lung adenocarcinoma, adherent)	0.888	> 32
NCI-H1770 (non-small cell lung carcinoma, suspension)	0.762	10.1
NCI-H1781 (lung adenocarcinoma, adherent)	0.85	24.2
NCI-H1792 (lung adenocarcinoma, adherent)	0.859	22.4
NCI-H1793 (lung adenocarcinoma, adherent)	0.926	> 32
NCI-H1836 (small cell lung carcinoma, suspension)	0.929	> 32
NCI-H1838 (lung adenocarcinoma, adherent)	0.955	> 32
NCI-H1869 (lung squamous cell carcinoma, adherent)	0.875	> 32
NCI-H1876 (small cell lung carcinoma, adherent)	0.776	12.9
NCI-H1915 (large cell lung carcinoma, adherent)	0.737	9.65
NCI-H1944 (lung adenocarcinoma, adherent)	0.737	10
NCI-H1963 (small cell lung carcinoma, suspension)	0.921	> 32
NCI-H1975 (lung adenocarcinoma, adherent)	0.845	28.3
NCI-H1993 (lung adenocarcinoma, adherent)	0.893	> 32
NCI-H2009 (lung adenocarcinoma, adherent)	0.684	6.76
NCI-H2023 (lung adenocarcinoma, adherent)	0.847	> 32
NCI-H2029 (small cell lung carcinoma, adherent)	0.95	> 32
NCI-H2030 (lung adenocarcinoma, adherent)	0.785	15.8
NCI-H2052 (mesothelioma, adherent)	0.728	10.9
NCI-H2081 (small cell lung carcinoma, suspension)	0.941	> 32
